Here are results for 30 variants from the supplement of paper PMC11876631.

± gives the standard deviation of the averaged measurements. Laboratory Escherichia coli strains with one amino-acid change in an essential protein, pooled on minimal glucose agar with carbenicillin or gentamicin at twice the control MIC (plus kanamycin and chloramphenicol for the plasmids), 48 h. Fold change of barcode share against drug-free plates; higher = less susceptible. Active = above 20 in both replicates (the paper's putatively resistant). '<' = one read or none on drug, '>' = one read or none on a drug-free plate. Shares are relative, so most strains fall below 1 when a few take over. Listed are strains with at least 15 reads on both drug-free plates, and hits; most hits rest on fewer reference reads. Replicate rank correlation about 0.5. Edits are read from barcodes.

B1: bioB; numbered along this chain (parent)
chain: MAHRPRWTLSQVTELFEKPLLDLLFEAQQVHRQHFDPRQVQVSTLLSIKTGACPEDCKYCPQSSRYKTGLEAERLMEVEQVLESARKAKAAGSTRFCMGAAWKNPHERDMPYLEQMVQGVKAMGLEACMTLGTLSESQAQRLANAGLDYYNHNLDTSPEFYGNIITTRTYQERLDTLEKVRDAGIKVCSGGIVGLGETVKDRAGLLLQLANLPTPPESVPINMLVKVKGTPLADNDDVDAFDFIRTIAVARIMMPTSYVRLSAGREQMNEQTQAMCFMAGANSIFYGCKLLTTPNPEEDKDLQLFRKLGLNPQQTAVLAGDNEQQQRLEQALMTPDTDEYYNAAAL
B2: hisC; numbered along this chain (parent)
chain: MSTVTITDLARENVRNLTPYQSARRLGGNGDVWLNANEYPTAVEFQLTQQTLNRYPECQPKAVIENYAQYAGVKPEQVLVSRGADEGIELLIRAFCEPGKDAILYCPPTYGMYSVSAETIGVECRTVPTLDNWQLDLQGISDKLDGVKVVYVCSPNNPTGQLINPQDFRTLLELTRGKAIVVADEAYIEFCPQASLAGWLAEYPHLAILRTLSKAFALAGLRCGFTLANEEVINLLMKVIAPYPLSTPVADIAAQALSPQGIVAMRERVAQIIAEREYLIAALKEIPCVEQVFDSETNYILARFKASSAVFKSLWDQGIILRDQNKQPSLSGCLRITVGTREESQRVIDALRAEQV

In one data set the parent is B1. Briefly: barcode share on antibiotic plates over drug-free plates; higher = less susceptible. The following applies: with Escherichia coli (laboratory strain); antibiotic: carbenicillin; 2× MIC (3.1 µg/mL). The procedure:
(§1)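 A pool of E. coli strains, each edited to carry one amino-acid change in an essential protein, was grown for 48 h on minimal glucose agar with or without antibiotic; strain barcodes were sequenced; mean of two replicates.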
As to V193D, the “fold change of barcode share” value was found to be 0.394 ± 0.025. On to V249A, for which the “fold change of barcode share” value came out at 0.334 ± 0.16.

With V249D, the “fold change of barcode share” value was determined as 1.26 ± 0.39. For the variant V249Q, the “fold change of barcode share” value was found to be 0.404 ± 0.021. V249P: the “fold change of barcode share” value is 1.32 ± 0.15. Consider V249W, for which the “fold change of barcode share” value amounted to 0.38916 ± 6.4e-05. Consider M278A, for which the “fold change of barcode share” value is 0.423 ± 0.012.

For M278D, the “fold change of barcode share” value is 1.3 ± 0.18.

M278P: the “fold change of barcode share” value stood at 1.23 ± 0.13. As to I247A, the “fold change of barcode share” value was 0.3828 ± 0.0032.

Take I247D: the “fold change of barcode share” value was found to be 1.32 ± 0.11.

Turning to I247Q, the “fold change of barcode share” value stood at 1.22 ± 0.48. As to I247W, the “fold change of barcode share” value was found to be 1.305 ± 0.0031.

Take I247P: the “fold change of barcode share” value worked out at 0.984 ± 0.32. Regarding F305P, the “fold change of barcode share” value is 1.32 ± 0.35. As for F305D, the “fold change of barcode share” value amounted to 1.19 ± 0.038. Turning to F305Q, the “fold change of barcode share” value was 0.57 ± 0.49. On the same count and under the same terms, as for F305A, the figure is 0.536 ± 0.03.

In the case of F305W, the “fold change of barcode share” value is 0.415 ± 0.03.

The data set is the same for the next values; noted with them: with Escherichia coli (laboratory strain); antibiotic: gentamicin; 2× MIC (MIC 0.45 µg/mL).
As to V193D, the “fold change of barcode share” value was less than 0.0151.

As for V249A, the “fold change of barcode share” value came out at 0.00538 ± 0.0021. Consider V249D, for which the “fold change of barcode share” value was 0.0262 ± 0.014. As for V249Q, the “fold change of barcode share” value stood at 0.0137 ± 0.012.

In the case of V249P, the “fold change of barcode share” value was less than 0.00749. Turning to M278A, the “fold change of barcode share” value amounted to 0.00563 ± 0.0051. In the case of M278D, the “fold change of barcode share” value was 0.0189 ± 0.0086.

As for M278P, the “fold change of barcode share” value worked out at 0.0265 ± 0.00066.

For the variant I247A, the “fold change of barcode share” value amounted to 0.00474 ± 0.0016. Consider I247D, for which the “fold change of barcode share” value was 0.0384 ± 0.007. For the variant I247Q, the “fold change of barcode share” value is 0.0393 ± 0.0086. I247W: the “fold change of barcode share” value turned out to be 0.015 ± 0.012. For the variant I247P, the “fold change of barcode share” value turned out to be 0.0574 ± 0.063. Take F305P: the “fold change of barcode share” value was found to be 0.0201 ± 0.0089. For the variant F305Q, the “fold change of barcode share” value is 0.0057 ± 0.0029.

F305A: the “fold change of barcode share” value came to 0.0125 ± 0.0058.

Regarding F305W, the “fold change of barcode share” value was 0.0107 ± 0.0095.

Variants of B2 are the subject of another data set. The description is as above. The following applies: with Escherichia coli (laboratory strain); antibiotic: carbenicillin; 2× MIC (3.1 µg/mL). The procedure:
as §1
Regarding V182Q, the “fold change of barcode share” value stood at 0.398 ± 0.0027.

As for V182P, the “fold change of barcode share” value stood at 0.716 ± 0.3. On the same count and under the same terms, as for L104D, the figure is 0.692 ± 0.22; as for L104A, 0.481 ± 0.2; as for L104Q, 0.559 ± 0.065.

As to L104W, the “fold change of barcode share” value worked out at 0.416 ± 0.13.

As to I92Q, the “fold change of barcode share” value was determined as 0.587 ± 0.17. As for I92A, the “fold change of barcode share” value was 0.52 ± 0.15. Regarding I92P, the “fold change of barcode share” value came to 0.513 ± 0.2. Consider I92W, for which the “fold change of barcode share” value was 0.447 ± 0.12.

Still in this data set, the particulars now being: with Escherichia coli (laboratory strain); antibiotic: gentamicin; 2× MIC (MIC 0.45 µg/mL).
V182A: the “fold change of barcode share” value was less than 0.0135. With V182P, the “fold change of barcode share” value is less than 0.0187. On to L104D, for which the “fold change of barcode share” value is less than 0.0156. With L104A, the “fold change of barcode share” value was determined as 0.0223 ± 0.014.

Turning to L104Q, the “fold change of barcode share” value was determined as 0.035 ± 0.001.

As for L104W, the “fold change of barcode share” value was found to be 0.0181 ± 0.012. The same measure, in the same setting: for I92Q the value was less than 0.0068; for I92A, 0.00818 ± 0.0036; for I92P, less than 0.00295. On to I92W, for which the “fold change of barcode share” value was 0.00923 ± 0.0023.
